Source: the supplement of paper PMC9446081
Out of some 39,000 compounds screened, about 220 (0.56%) showed activity. Some of the results follow.

Each molecule was assayed on Escherichia coli K-12 BW25113 (assay: relative growth (OD600 normalised to plate interquartile mean) (fraction); higher = less growth inhibition, active = 0.2 or less). Conditions: 50 µM; LB; incubation time: overnight (16-24 h).
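Note: static incubation at 37 °C against the wild-type strain, values averaged over two biological replicates.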

Row | Structure (SMILES) | relative growth
1 | O=C(CS)NCCCCCCNC(=O)[C@@H]1C[C@@H]2C(=O)NCC(=O)N2[C@@H]1c1cccc(OCCO)c1 | inactive: 1.04
2 | C[C@@H]1CN([C@H](C)CO)C(=O)c2cc(NC(=O)Nc3ccc4c(c3)OCO4)ccc2O[C@@H](C)CCCCO[C@@H]1CN(C)Cc1ccc(Cl)c(Cl)c1 | inactive: 1.02
3 | COc1ccc(S(=O)(=O)Nc2cccc3c2O[C@H](CN(C)Cc2ccc(-c4ccccc4)cc2)[C@@H](C)CN([C@@H](C)CO)C3=O)cc1 | inactive: 1.05
4 | C[C@@H]1O[C@@H]1P(=O)(O)O | inactive: 1.02
5 | C[C@@H]1CCCCO[C@@H](CN(C)Cc2ccc(C(F)(F)F)cc2)[C@@H](C)CN([C@H](C)CO)C(=O)c2cc(NC(=O)Nc3ccc4c(c3)OCO4)ccc2O1 | inactive: 1.02
6 | C[C@@H]1CN([C@@H](C)CO)C(=O)c2cc(NC(=O)Nc3ccc4c(c3)OCO4)ccc2O[C@@H](C)CCCCO[C@@H]1CN(C)C(=O)Nc1ccc2c(c1)OCO2 | inactive: 1.03
7 | C[C@H](CO)N1C[C@H](C)[C@@H](CN(C)S(=O)(=O)c2ccc(F)cc2)Oc2ccc(NC(=O)c3ccncc3)cc2C1=O | inactive: 0.99
8 | COc1ccc(S(=O)(=O)Nc2ccc3c(c2)C(=O)N([C@H](C)CO)C[C@@H](C)[C@H](CN(C)S(=O)(=O)c2ccc(C)cc2)O3)cc1 | inactive: 0.999
9 | Cc1noc(C)c1NC(=O)N(C)C[C@@H]1Oc2c(NC(=O)c3ccc(-c4nccs4)cc3)cccc2C(=O)N([C@@H](C)CO)C[C@@H]1C | inactive: 1.05
10 | Cc1ccc(S(=O)(=O)N(C)C[C@H]2OCCCC[C@@H](C)Oc3ccc(NC(=O)C4CCCCC4)cc3C(=O)N([C@H](C)CO)C[C@@H]2C)cc1 | inactive: 1.01
11 | Cc1ccc(S(=O)(=O)N(C)C[C@@H]2Oc3ncc(C#CCC(C)C)cc3C(=O)N([C@@H](C)CO)C[C@H]2C)cc1 | inactive: 1.02
12 | COC(=O)C(CC#Cc1ccc2c(c1)[C@]1(C(=O)N2)[C@H](C(=O)N2CCc3cc(OC)c(OC)cc3C2)[C@H]2C(=O)O[C@H](c3ccccc3)[C@H](c3ccccc3)N2[C@@H]1c1ccc(O)cc1)C(=O)OC | inactive: 0.989
13 | Nc1ccn([C@H]2O[C@@H](CO)[C@@H](O)[C@@H]2O)c(=O)n1 | inactive: 1.01
14 | CN(C)CC(=O)N[C@H]1CC[C@H](CC(=O)NCCN2CCCCC2)O[C@@H]1CO | inactive: 0.97
15 | C[C@H](C(=O)N(C)C[C@H]1OCc2ccccc2-c2c(n(C)c3ccccc23)C(=O)N([C@H](C)CO)C[C@@H]1C)c1ccccc1 | inactive: 0.994
16 | C[C@@H]1CN([C@H](C)CO)C(=O)c2cc(NC(=O)C3CCCCC3)ccc2O[C@@H]1CN(C)Cc1ccc(Oc2ccccc2)cc1 | inactive: 0.965
17 | C[C@H](CO)N1C[C@H](C)[C@@H](CN(C)C(=O)Nc2ccc(C(F)(F)F)cc2)OCCCC[C@H](C)Oc2ccc(NC(=O)c3ccncc3)cc2C1=O | inactive: 0.929
18 | C[C@@H]1CN([C@@H](C)CO)C(=O)CCCn2nncc2CO[C@H]1CN(C)C(=O)Nc1ccc2c(c1)OCCO2 | inactive: 0.99

Row | Structure (SMILES) | relative growth
19 | COc1ccccc1NC(=O)N(C)C[C@@H]1OCc2ccccc2-c2c(n(C)c3ccccc23)C(=O)N([C@H](C)CO)C[C@@H]1C | inactive: 1.01
20 | CC(C)NC(=O)N(C)C[C@H]1Oc2ccc(NC(=O)C3CCCCC3)cc2CC(=O)N([C@@H](C)CO)C[C@@H]1C | inactive: 1.01
21 | C[C@@H]1CN([C@@H](C)CO)C(=O)c2cc(NC(=O)Nc3cccc4ccccc34)ccc2O[C@@H](C)CCCCO[C@H]1CN(C)C(=O)CCCN(C)C | inactive: 0.978
22 | C[C@H](CO)N1C[C@H](C)[C@@H](CN(C)C(=O)c2ccccc2)OCCCC[C@H](C)Oc2ccc(NC(=O)Nc3cccc4ccccc34)cc2C1=O | inactive: 1.02
23 | COc1ccc(S(=O)(=O)N(C)C[C@@H]2OCCCC[C@@H](C)Oc3ccc(NS(C)(=O)=O)cc3C(=O)N([C@@H](C)CO)C[C@@H]2C)cc1 | inactive: 0.921
24 | C[C@@H]1CN([C@H](C)CO)C(=O)c2c(c3ccccc3n2C)-c2ccccc2CO[C@@H]1CN(C)Cc1ccccc1 | inactive: 0.975
25 | COCC(=O)N1C[C@H](C)[C@H](OC)CN(C)C(=O)c2cc(NC(=O)c3ccc(F)cc3)ccc2OC[C@H]1C | inactive: 1.01
26 | C[C@@H]1CN([C@@H](C)CO)C(=O)c2cccc(NC(=O)c3ccc(-c4nccs4)cc3)c2O[C@@H]1CN(C)S(=O)(=O)c1cn(C)cn1 | inactive: 1.02
27 | C[C@H](CO)N1C[C@H](C)[C@H](CN(C)C(=O)Nc2cccc3ccccc23)OCCCC[C@H](C)Oc2ccc(NC(=O)C3CCCCC3)cc2C1=O | inactive: 1.02
28 | CCc1nc2ccc(C(=O)Nc3ccc(OC)c(OC)c3)cn2c1N(CC)Cc1cccc(Br)c1 | inactive: 1
29 | C[C@@H]1CCCCO[C@@H](CN(C)S(=O)(=O)c2ccc(Cl)cc2)[C@H](C)CN([C@H](C)CO)C(=O)c2cc(NC(=O)c3ccccc3)ccc2O1 | inactive: 1.03
30 | C[C@H]1CN([C@@H](C)CO)C(=O)c2cccc(NC(=O)c3ccc(-c4nccs4)cc3)c2O[C@@H]1CN(C)Cc1ccccc1 | inactive: 1.03
31 | COCC#Cc1cnc2c(c1)C(=O)N([C@@H](C)CO)C[C@H](C)[C@H](CN(C)S(=O)(=O)c1cn(C)cn1)O2 | inactive: 0.978
32 | CN1C=C(C(=O)OCCS(C)(=O)=O)C(C(=O)OCCS(C)(=O)=O)=CC(c2ccc(CO)cc2)=C[C@@H]1C1CC1 | inactive: 1.02
33 | C[C@H](CO)N1C[C@H](C)[C@@H](CN(C)C(=O)Cc2ccccc2)OCCCC[C@H](C)Oc2ccc(NC(=O)CCC(F)(F)F)cc2C1=O | inactive: 1.04
34 | C[C@@H]1CCCCO[C@H](CN(C)C(=O)C2CCCCC2)[C@@H](C)CN([C@H](C)CO)C(=O)c2cc(NC(=O)CCCCCC(=O)Nc3ccccc3N)ccc2O1 | inactive: 0.973
35 | CCCN(C)C[C@@H]1OCCCC[C@H](C)Oc2ccc(NC(=O)C3CCCCC3)cc2C(=O)N([C@@H](C)CO)C[C@@H]1C | inactive: 1
